# According to PubChem BioAssay AID504648 (National Center for Advancing Translational Sciences (NCATS), 2011):
# The campaign covered roughly 390,000 compounds. About 610 (0.16%) were called active. About 4% were inconclusive and are not listed. Calls follow the shape of the dose curve; as a rule, active = well fitted inhibition curve with a large enough effect; inconclusive = small, poorly fitted or top-dose-only effect, or effect the other way, or another doubt; inactive = no such curve, though single readings can be large or run the other way. The entries are a selection whose mix differs from that of the whole data set. Some compounds were tested as several samples or in several runs, with calls that do not always agree.
# Assay: Nrf2 qHTS screen for inhibitors: counterscreen for cytotoxicity
# Conditions: A549 ARE-Fluc cells, CellTiter-Fluor viability, 18-24 h; series mostly up to 46 µM; activity change, negative = cytotoxicity: at the top concentration
# In short: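 A549 ARE-Fluc cells in 5% FBS OPTI-MEM, 5000 cells/well, rested 2 h then exposed to compounds in concentration-response for 18-24 h at 37 °C. Viability by CellTiter-Fluor fluorescence (Ex 405/Em 525) after 30 min; luciferase luminescence (BugLite, 15 min, RT) read afterwards.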
# % is scaled to controls: 0 for no effect and ±100 for the full control effect; potency is read from the fitted curve at half-maximal effect.
SMILES,"activity change, negative = cytotoxicity",Potency
O=C(N[C@@H]1C/C=C\C[C@@H](CC(=O)N(CCO)Cc2ccccc2)C(=O)N[C@H](Cc2ccccc2)COC1=O)OCC1c2ccccc2-c2ccccc21,inactive: -2.56%,
COc1ccc2c(c1)N(C)/C(=C/c1cccc[n+]1C)S2,,active: 16.4 µM
COc1cc2c(=O)c(C(=O)c3ccc(C)c(C)c3)cn(Cc3ccccc3F)c2cc1OC,,active: 20.6 µM
COc1cc(OC)c2c(c1C(CCN1CCOCC1)c1ccc(N(C)C)cc1)OC(=O)CC2c1ccc(N(C)C)cc1 (stereo not given),inactive: -0.546%,
C=CCC[C@H](Cc1ccc(F)cc1)C(=O)OC[C@H](C)NC(=O)[C@@H](CC=C)CC(=O)N[C@H](CO)Cc1ccccc1,inactive: -3.89%,
CCc1ccc(NC(=O)C(NS(=O)(=O)c2cccc3nsnc23)c2ccccc2)cc1 (stereo not given),inactive: -6.86%,
COc1ccc(CNc2ncnc3nc[nH]c23)cc1OC,inactive: 8.32%,
CCOC(=O)/C(C#N)=C/c1c(OCC)n(CC)c2ccccc12,inactive: -9.97%,
O=C1/C(=C\c2ccco2)SC(=S)N1C1CCS(=O)(=O)C1 (stereo not given),inactive: -16.6%,
C=CCC[C@H](Cc1ccc(F)cc1)C(=O)OC[C@@H](Cc1c[nH]c2ccccc12)NC(=O)[C@@H](CC=C)CC(=O)N(CCO)Cc1ccccc1,,active: 11.6 µM
COc1ccccc1[C@]1(C)ON(c2ccccc2C(F)(F)F)C1=O,inactive: -12.1%,
O=C(Nc1nc2ccc([N+](=O)[O-])cc2s1)c1ccc(S(=O)(=O)N2CCCc3ccccc32)cc1,,active: 9.2 µM
CC(C)NC[C@H](O)COc1ccc(CC(N)=O)cc1,inactive: -1.63%,
c1cnc2c(c1)ccc1cccnc12,inactive: -29.2%,
COc1cc(/C=C(\C#N)c2nc3ccccc3s2)cc([N+](=O)[O-])c1O,,active: 20.6 µM
O=C(CCl)Nc1cc(SCC(O)CO)cc([N+](=O)[O-])c1 (stereo not given),,active: 6.51 µM
Cc1cccc(NC(=O)COc2ccc(-c3nn(C)c(=O)c4ccccc34)cc2)c1,inactive: -21.2%,
Cc1ccc(S(=O)(=O)/N=C2\C=C(Nc3ccc(O)cc3)C(=O)c3ccccc32)cc1,,active: 16.4 µM
Cc1cccc(NC(=O)Cn2cc(C(=O)c3ccco3)c3ccccc32)c1,inactive: -19.5%,
Cc1ccc(F)c([C@H]2[C@@H]3C=CCC[C@@]3(C)C(=O)N2Cc2ccccc2)c1,inactive: 5.86%,
O=C(NC(Cc1ccccc1)C(=O)O)/C(=C/c1ccc(Br)cc1)NC(=O)c1ccc(Br)o1 (stereo not given),inactive: 5.2%,
CC(C)OCCCN(C)C1CCN(S(=O)(=O)c2csc(C(N)=O)c2)CC1,inactive: -0.126%,
CC1OC(Oc2c(-c3cc(O)c(O)c(O)c3)oc3cc(O)cc(O)c3c2=O)C(O)C(O)C1O (stereo not given),inactive: -12.2%,
COc1ccc(NC(=O)CSc2c3c(nc4ccccc24)CCC3)c(OC)c1,inactive: -7.78%,
O=c1cc(-c2ccc(O)c(O)c2)oc2cc(O)c(C3OC(CO)C(O)C(O)C3O)c(O)c12 (stereo not given),inactive: -1.16%,
CCC1CN(S(=O)(=O)c2cc(-c3cc(C)no3)ccc2OC)c2cc(C)ccc2O1 (stereo not given),inactive: 27.8%,
CCOC(=O)CCCC(=O)Nc1ncnc2c1C(c1ccccc1)c1c(ccc3ccccc13)O2 (stereo not given),inactive: -0.414%,

SMILES,"activity change, negative = cytotoxicity",Potency
CC1=NN(c2ccccc2)C(=O)/C1=C\C=C1\N(C)c2ccccc2C1(C)C,inactive: -17.3%,
O=C(C1CCC(CNS(=O)(=O)c2cccs2)CC1)N1CCN(c2ccc(Cl)cc2)CC1 (stereo not given),inactive: -11.6%,
OCC1OC(n2ccc3c(NO)ncnc32)C(O)C1O (stereo not given),,active: 2.06 µM
CCOc1ccc(CCNC(=O)CN2C(=O)c3cccnc3Oc3ccc(Cl)cc32)cc1,inactive: 3.27%,
C=CC[C@H](CC(=O)N[C@H](CO)Cc1ccccc1)C(=O)N[C@H](COC(=O)[C@H](CC=C)CC(=O)OC(C)(C)C)Cc1c[nH]c2ccccc12,inactive: -14%,
O=C(C[C@H]1C/C=C\C[C@@H](NC(=O)OCC2c3ccccc3-c3ccccc32)C(=O)O[C@@H](c2ccccc2)CNC1=O)N[C@H](CO)Cc1ccccc1,inactive: -22.8%,
COc1cc(C(CCN2CCN(c3ccccc3)CC2)c2c(OC)cc(OC)c3c(C)cc(=O)oc23)cc(OC)c1OC (stereo not given),inactive: -18%,
C/C=C(\C)C(=O)OC1CC(C)(C)C[C@H]2C3=CC[C@@H]4[C@@]5(C)CCC(O[C@@H]6O[C@@H](C(=O)O)[C@@H](O)C(O[C@@H]7OC[C@H](O)[C@@H](O)[C@@H]7O[C@@H]7OC(CO)C(O)[C@@H](O)[C@@H]7O)C6O[C@@H]6OC(CO)C(O)C(O)C6O)[C@@](C)(CO)[C@@H]5CC[C@]4(C)[C@]3(C)CC(O)[C@@]12CO (stereo not given in full),inactive: -21.6%,
O=C(C[C@H]1C/C=C\CC[C@@H](Cc2ccc(F)cc2)C(=O)OC[C@H]2CCCN2C1=O)N[C@H](CO)Cc1ccccc1,inactive: 2.41%,
Cc1nnc(N2CCC(C(=O)NC3CCC(C)CC3)CC2)c2nn(-c3ccc(Cl)cc3)c(C)c12 (stereo not given),inactive: 1.97%,
CCN(CC)C(=O)CC(c1ccc(OC)cc1)c1c(OC)cc(OC)c2ccc(=O)oc12 (stereo not given),inactive: -2.21%,
Cc1ccc2nc(/N=C(\N)NC(=O)NC3CCCCC3)nc(C)c2c1,,active: 23.1 µM
CCN1CCN(c2c(S(=O)(=O)c3ccc(C)c(C)c3)cnc3ccc(F)cc23)CC1,inactive: 5.34%,
O=C(Nc1cccc(O)c1)c1noc2c1CCc1ccccc1-2,inactive: -1.47%,
Cc1ccc(-n2nc3c(N4CCC(C(=O)NCCc5ccccc5C)CC4)nnc(C)c3c2C)cc1,inactive: -4.39%,
Cc1noc(NS(=O)(=O)c2ccc(N/C=C\C(=O)c3ccccc3)cc2)c1C,inactive: -6.11%,
COc1ccc(Br)cc1/C=C/C(=O)c1ccc(NC(C)=O)cc1,,active: 8.2 µM
COC(=O)c1cc2c(n1S(=O)(=O)c1ccc(C)cc1)C(=O)C(=O)c1[nH]cc(C(=O)OCc3ccccc3)c1-2,,active: 4.11 µM
c1ccc([C@H]2CC3C[C@@H](c4ccccc4)N2O3)cc1,inactive: 1.08%,
CC1(C)c2[nH]c3ccccc3c2C[C@@H]2C(=O)N(Cc3ccc(F)cc3)C(=O)N21,inactive: -8.1%,
Cn1nc(-c2cccnc2)nc2c(=O)n(C)c(=O)nc1-2,,active: 6.51 µM
O=C(N/C(=C/c1ccc(Br)cc1)c1nc2ccccc2[nH]1)c1ccco1,inactive: -4.75%,
C=CCC[C@@H](Cc1ccc(F)cc1)C(=O)OC[C@@H](Cc1c[nH]c2ccccc12)NC(=O)[C@@H](CC=C)CC(=O)N[C@H](CO)Cc1ccccc1,inactive: -19.5%,
C[C@@H](NC(=O)c1nc[nH]c1C(=O)N[C@@H](Cc1ccccc1)C(=O)OC(C)(C)C)c1ccccc1,inactive: -25.3%,
COc1cccc(C2c3c(ncn(-c4ccccc4)c3=N)Oc3ccc4ccccc4c32)c1 (stereo not given),inactive: -17.3%,
COc1ccccc1C1c2c(ncn(-c3ccccc3)c2=N)Oc2ccc3ccccc3c21 (stereo not given),,active: 20.6 µM
Cc1sc(-n2c(C)cc(/C=C3\SC(=S)NC3=O)c2C)c(C#N)c1C,,active: 20.6 µM

SMILES,"activity change, negative = cytotoxicity",Potency
O=C1N[C@@H](c2ccccc2)COC(=O)[C@H](Cc2ccc(F)cc2)C/C=C\C[C@H]1CC(=O)N(CCO)Cc1ccccc1,inactive: 2.41%,
Cc1cccc(/C=C/c2onc(C)c2[N+](=O)[O-])n1,,active: 18.4 µM
Cc1cccc(Nc2nnc(SCC(O)=C(C#N)c3nc4ccccc4[nH]3)s2)c1,inactive: -10.2%,
O=C(CN1CCN(c2ccc(Cl)cc2)CC1)Nc1ccc(F)c(F)c1,inactive: -0.389%,
Cc1ccc(O)c([C@H](CCN(C(C)C)C(C)C)c2ccccc2)c1,inactive: -7.16%,
CC(C)(C)[C@@H]1COC(=O)[C@H](Cc2ccc(F)cc2)CC/C=C\C[C@@H](CC(=O)N(CCO)Cc2ccccc2)C(=O)N1,inactive: -8.15%,
COc1ccc(C)cc1NS(=O)(=O)c1ccc(-c2cnc(C3CC3)o2)cc1,inactive: -8.63%,
Cc1nnc(Sc2cc(NCCO)c([N+](=O)[O-])c3nonc23)s1,,active: 25.9 µM
COc1ccc(N(C)C(=O)c2oc(=O)c3ccccc3c2-c2ccc(C)cc2)c(OC)c1,inactive: -0.107%,
CCO[C@H]1OC(C(=O)N2CCN(Cc3ccc4c(c3)OCO4)CC2)=C[C@@H](c2ccc(C(F)(F)F)cc2)[C@@H]1CCCO,inactive: -16.3%,
O=C(C[C@H]1C/C=C\CC[C@H](Cc2ccc(F)cc2)C(=O)OC[C@H]2CCCN2C1=O)N[C@@H](CO)Cc1ccccc1,inactive: -6.08%,
CC(C)(C)[C@@H]1COC(=O)[C@H](Cc2ccc(F)cc2)CC/C=C\C[C@H](CC(=O)N(CCO)Cc2ccccc2)C(=O)N1,inactive: -15.6%,
CCC1CN(C(=O)NCc2ccccc2)c2cc(C)ccc2O1 (stereo not given),inactive: 0.27%,
COc1cc2c(c(OC)c1OC)-c1ccc(OC)c(=O)cc1[C@@H](NC(C)=O)CC2,inactive: -12.6%,
N=c1c2c(ncn1CCN1CCOCC1)Oc1ccc3ccccc3c1C2c1ccccc1 (stereo not given),inactive: -4.88%,
O=C(CCCN1C(=O)/C(=C\c2cccs2)SC1=S)Nc1cccnc1,inactive: -25.9%,
C=CC[C@@H](CC(=O)N[C@@H](CO)Cc1ccccc1)C(=O)NC[C@@H](OC(=O)[C@@H](CC=C)Cc1ccc(F)cc1)c1ccccc1,inactive: -6.8%,
O=C1/C(=C\c2cccs2)N=C(c2cccs2)N1Nc1ccccc1,inactive: -17.8%,
CC(NC(=O)COC(=O)CCc1ccccc1)c1ccccc1 (stereo not given),,active: 23.1 µM
O=C(NCc1ccccc1)C1=C[C@@H](c2csc3ccccc23)C[C@@H](OCCCCO)O1,inactive: -13.2%,
C/C(N)=C(/C#N)C(=O)CSc1n[nH]c(-c2ccccc2Br)n1,inactive: 7.7%,
Cn1cccc1C(=O)NC(=O)COC(=O)c1ccc(S(C)(=O)=O)c([N+](=O)[O-])c1,inactive: -7.16%,
COc1cc(/C=C2\SC(=O)N(c3cccc(Cl)c3)C2=O)cc([N+](=O)[O-])c1O,,active: 13 µM
O=C1NC[C@H](c2ccccc2)OC(=O)[C@H](Cc2ccc(F)cc2)C/C=C\C[C@@H]1CC(=O)N(CCO)Cc1ccccc1,inactive: -10.1%,
CCOC(=O)c1ccc(NC(=O)c2nc(S(=O)(=O)Cc3ccccc3)ncc2Cl)cc1,inactive: -29%,
O=C1c2ccccc2-c2onc3c(N4CCN(CCO)CC4)cc(N4CCN(C(=O)c5ccco5)CC4)c1c23,,active: 20.6 µM
